{"source": "PubChem BioAssay AID588855", "about": "(National Center for Advancing Translational Sciences (NCATS), 2011)", "note": "Out of some 410,000 compounds screened, about 5,000 (1.2%) were called active. Inconclusive results, whose numbers are uncertain, are shown with a selection of clear calls. Calls follow the shape of the dose curve; as a rule, active = well fitted inhibition curve with a large enough effect; inconclusive = small, poorly fitted or top-dose-only effect; inactive = no such curve, though single readings can be large or run the other way. Where the call is inconclusive, the potency comes from a doubtful curve fit. Potency is read from the fitted curve at half-maximal effect; tags tell the direction and shape of the fitted curve.", "data": [{"assay": "qHTS for Inhibitors of TGF-b; also: nearly all actives have a fitted effect of over 65% in size", "conditions": "HepG2 CAGA-GFP TGF-b/SMAD3 reporter, GFP fluorescence, 18 h, TGF-beta stimulated, 500 pg/mL final; series mostly up to 46.1 µM", "outline": "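Inhibition of TGF-beta-driven CAGA-GFP reporter expression in HEPG2 cells is measured by cellular GFP fluorescence after 18 h stimulation with 500 pg/mL recombinant TGF-beta in 1% FBS medium at 37 degrees C.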", "values": [{"smiles": "COc1nc(-c2cccc([N+](=O)[O-])c2)nc2ccccc12", "Potency": "inactive"}, {"smiles": "COc1cc(OC)c2c(=O)cc(-c3ccccc3)oc2c1", "Potency": "inactive"}, {"smiles": "COc1ccc(NC(=O)/C(C#N)=C/c2c(C)nn(-c3ccc(F)cc3)c2Cl)cc1OC", "Potency": "inconclusive: 35.5 µM [inhibitor, single point]"}, {"smiles": "COc1ccc(NC(=O)c2cc3ccccc3cc2O)cc1", "Potency": "inconclusive: 10 µM [inhibitor, partial curve, poor fit]"}, {"smiles": "Cc1ccc(-n2c(=O)[nH]c3c(oc4ccccc43)c2=O)cc1", "Potency": "inactive"}, {"smiles": "COc1cccc(CN(C)CC(O)COc2cc(Cl)ccc2Cl)c1", "note": "(centres undefined)", "Potency": "inconclusive: 11.2 µM [inhibitor, partial curve]"}, {"smiles": "c1ccc(OCCN2CCN(Cc3nc(-c4ccc5c(c4)OCO5)no3)CC2)cc1", "Potency": "inconclusive: 12.6 µM [inhibitor, single point]"}, {"smiles": "COCCCNC(=O)Cn1c(=O)n(-c2cccc(C)c2)c(=O)c2c3c(sc21)CN(C(C)=O)CC3", "Potency": "inactive"}, {"smiles": "O=C(CSc1nc2c(c(=O)[nH]1)CCCC2)Nc1cccc(O)c1", "Potency": "inactive"}, {"smiles": "O=C(COc1cc(F)ccc1[N+](=O)[O-])NCCN1C(=O)CSC1=O", "Potency": "inactive"}, {"smiles": "CC(C)=CCc1c([C@@H]2CCc3ccc(O)cc3O2)cc2c(c1O)OC(C)(C)C=C2", "Potency": "inconclusive: 17.8 µM [inhibitor, single point]"}, {"smiles": "Cc1cc(OCCn2c(C3CC(=O)N(Cc4ccc(F)cc4)C3)nc3ccccc32)ccc1Cl", "note": "(centres undefined)", "Potency": "active: 12.6 µM"}, {"smiles": "COCCNC(=S)N1CCC(Cc2ccccc2)CC1", "Potency": "inactive"}, {"smiles": "CC(NCCN(C)C)C1CCC2C3CCc4cc(O)ccc4C3CCC12C", "note": "(centres undefined)", "Potency": "inconclusive: 20 µM [inhibitor, single point]"}, {"smiles": "Cc1cc2n(n1)SC(Nc1ccc(F)c(Cl)c1)N2", "note": "(centres undefined)", "Potency": "inconclusive: 12.6 µM [inhibitor, single point]"}, {"smiles": "Cc1nn(-c2nc3ccccc3[nH]2)c(N)c1-c1ccccc1", "Potency": "inactive"}, {"smiles": "CCOC(=O)C1=C[C@@H](C)N(S(=O)(=O)c2ccc(C)cc2)[C@H]1c1ccccc1", "Potency": "inconclusive: 8.91 µM [inhibitor, partial curve, poor fit]"}, {"smiles": "O=C(NCc1ccco1)c1ccc(Cl)c(S(=O)(=O)N2CCc3ccccc32)c1", "Potency": "inconclusive: 1.26 µM [inhibitor, full curve]"}, {"smiles": "S=C(NCCC(c1ccccc1)c1ccccc1)Nc1ccc(Cl)cc1", "Potency": "active: 20 µM"}, {"smiles": "Cc1ccc(C)c(N2CCN(CCCNC(=O)Cn3c(-c4cccs4)cc4ccccc43)CC2)c1", "Potency": "active: 12.6 µM"}, {"smiles": "CCOc1cc(C(=O)NC(C)CCc2ccccc2)cc(OCC)c1OCC", "note": "(centres undefined)", "Potency": "inactive"}, {"smiles": "c1ccc2c(c1)CC1(CCCCC1)n1nnnc1-2", "Potency": "inactive"}, {"smiles": "CCCCN(C(C)=O)c1c(CC)nc2ccc(C(=O)NCCc3ccccn3)cn12", "Potency": "inactive"}, {"smiles": "CC#CC#Cc1cccc(=O)o1", "Potency": "inactive"}, {"smiles": "O=C1c2ccccc2C(=O)c2[nH]c(=O)[nH]c21", "Potency": "active: 1 µM"}, {"smiles": "COc1ccc(C(NC(=O)C2CCCCC2)c2c(O)ccc3ccccc23)cc1", "note": "(centres undefined)", "Potency": "inconclusive: 11.2 µM [inhibitor, partial curve]"}, {"smiles": "O=C(CN(C(=O)c1cccc([N+](=O)[O-])c1)C1CCCCC1)Nc1ccc(Cl)c([N+](=O)[O-])c1", "Potency": "inconclusive: 20 µM [inhibitor, single point]"}, {"smiles": "Cc1cccc(/C=N/NC(=O)c2cc3c(s2)-c2ccccc2CC3)c1", "Potency": "inconclusive: 12.6 µM [inhibitor, single point]"}, {"smiles": "COc1cc(OC)cc(C(=O)NC2CCSc3ccccc32)c1", "note": "(centres undefined)", "Potency": "inactive"}, {"smiles": "COCCNc1nc(NCc2cccs2)nc2ccsc12", "Potency": "active: 12.6 µM"}, {"smiles": "CCOC(=O)c1cc2c(=O)n3ccccc3nc2n(Cc2ccco2)c1=NC(=O)c1ccccc1OCC", "Potency": "inconclusive: 5.62 µM [inhibitor, single point]"}, {"smiles": "COc1cc(CNC2CCCC2)cc(OC)c1OC", "Potency": "inactive"}, {"smiles": "COc1ccc(Cc2nnc(NC(=O)c3cc(OC)cc(OC)c3)s2)cc1", "Potency": "inconclusive: 15.8 µM [inhibitor, single point]"}, {"smiles": "COc1ccccc1N1CCN(C(=O)CCSCc2ccccc2F)CC1", "Potency": "inactive"}, {"smiles": "O=C(Nc1nccs1)c1cn(-c2ccccc2)nc1-c1ccccc1", "Potency": "inconclusive: 35.5 µM [inhibitor, single point]"}, {"smiles": "Cc1oc(-c2ccccc2F)nc1Cn1c(SCc2ccccc2F)nc2ccncc21", "Potency": "inconclusive: 8.91 µM [inhibitor, partial curve, poor fit]"}, {"smiles": "Cc1ccc(S(=O)(=O)n2ccc3c(OCCOCCNCc4ccc(F)cc4)cccc32)cc1", "Potency": "inconclusive: 6.31 µM [inhibitor, partial curve]"}, {"smiles": "CN[C@H]1C[C@H]2c3[nH]c4ccc(-c5cccc(C)c5)cc4c3CCN2C[C@H]1[C@H](C)O", "Potency": "inconclusive: 22.4 µM [inhibitor, single point]"}, {"smiles": "COc1ccc(OCCCn2c(CCNC(=O)C3CCCCC3)nc3ccccc32)cc1", "Potency": "active: 10 µM"}, {"smiles": "O=C1N=C(N2CCN(c3ccccc3)CC2)S/C1=C/c1ccco1", "Potency": "inconclusive: 11.2 µM [inhibitor, single point]"}, {"smiles": "O=C(Oc1ccc(NC(=O)c2cc3c(cc2Br)OCO3)cc1)c1ccccc1", "Potency": "inactive"}, {"smiles": "COc1ccc(OCc2nnc(SCC(=O)N3C(C)CCCC3C)o2)cc1", "note": "(centres undefined)", "Potency": "inactive"}, {"smiles": "COc1ccccc1CNC(=O)c1ccc(-c2ccccc2C(F)(F)F)o1", "Potency": "inconclusive: 25.1 µM [inhibitor, single point]"}, {"smiles": "Cn1ncc2c(O/N=C(\\N)c3ccc(C(C)(C)C)cc3)ncnc21", "Potency": "inconclusive: 35.5 µM [inhibitor, single point]"}, {"smiles": "Cc1ccc(C(=O)c2cn(Cc3ccc(F)cc3)c3nc(C)ccc3c2=O)cc1", "Potency": "inactive"}, {"smiles": "Cc1cccc(N2CCN(C(=O)c3ccccc3NC(=O)C3CC=CCC3C(=O)O)CC2)c1", "note": "(centres undefined)", "Potency": "inactive"}, {"smiles": "O=C(c1ccncc1)N1CCN(S(=O)(=O)c2ccc3ccccc3c2)CC1", "Potency": "inconclusive: 10 µM [inhibitor, partial curve, poor fit]"}, {"smiles": "Cc1ccc(NC(=O)C(OC(=O)c2ccc(NC(N)=O)cc2)c2ccccc2)cc1Cl", "note": "(centres undefined)", "Potency": "inconclusive: 14.1 µM [inhibitor, partial curve, poor fit]"}, {"smiles": "O=C(C[n+]1ccnc2ccccc21)c1ccc(Br)cc1", "Potency": "inconclusive: 10 µM [inhibitor, partial curve, poor fit]"}, {"smiles": "CC1=[N+](C)c2c(ccc3cccnc23)C1(C)C", "Potency": "inconclusive: 35.5 µM [inhibitor, single point]"}, {"smiles": "O=C(Nc1c2c(nn1-c1ccccc1)CS(=O)(=O)C2)c1ccccc1Br", "Potency": "inactive"}, {"smiles": "Cc1ccc(-c2nc(-c3ccccn3)no2)cc1Cl", "Potency": "inactive"}, {"smiles": "COC(=O)C1=C(C)NC(=O)NC1c1ccc(-c2ccccc2Cl)o1", "note": "(centres undefined)", "Potency": "inconclusive: 2.82 µM [inhibitor, partial curve]"}, {"smiles": "COCCNC(=O)CC(=O)N/N=C/c1cccc(C(=O)OC)c1", "Potency": "inactive"}, {"smiles": "CCc1nc(C)cn1S(=O)(=O)c1cc(Br)c(C)cc1OC", "Potency": "inconclusive: 39.8 µM [inhibitor, partial curve, poor fit]"}, {"smiles": "CCCOc1ccc(F)cc1-c1cc(C(=O)Nc2ccccc2)[nH]n1", "Potency": "inactive"}, {"smiles": "CC(=O)Nc1ccc(S(=O)(=O)N2CCN(c3cc(C)ccc3C)CC2)cc1", "Potency": "inconclusive: 17.8 µM [inhibitor, single point]"}, {"smiles": "COCCNC(=O)C1(C)CCCN(Cc2ccc(Cl)nc2)C1", "note": "(centres undefined)", "Potency": "inactive"}, {"smiles": "Cc1ccc2nc(N3CCN(C(=O)C4COc5ccccc5O4)CC3)sc2c1", "note": "(centres undefined)", "Potency": "inconclusive: 12.6 µM [inhibitor, partial curve, poor fit]"}, {"smiles": "CCOC(=O)N1CCN(c2cc(C)c(C(C)=O)cc2F)CC1", "Potency": "inactive"}, {"smiles": "CCCC(=O)Nc1ccc(Br)cn1", "Potency": "inconclusive: 15.8 µM [inhibitor, single point]"}, {"smiles": "CSc1ccc(C2NC(=O)CCC2[N+](=O)[O-])cc1", "note": "(centres undefined)", "Potency": "inactive"}, {"smiles": "CC(C)CNC(=O)COC(=O)c1cc(S(=O)(=O)N2CCCCC2)ccc1N1CCOCC1", "Potency": "inactive"}, {"smiles": "COc1cc(C(=O)COC(=O)c2ccc([N+](=O)[O-])o2)cc(OC)c1OC", "Potency": "inconclusive: 28.2 µM [inhibitor, single point]"}, {"smiles": "CCOC(=O)c1ccc(N2C(=O)c3[nH]nc(-c4ccccc4)c3C2c2cccs2)cc1", "note": "(centres undefined)", "Potency": "active: 7.08 µM"}, {"smiles": "CCNC(=S)NNC(=O)C(c1ccccc1)c1ccccc1", "Potency": "inactive"}, {"smiles": "COc1ccccc1NC(=O)C1=C(C)NC(=O)NC1c1cc(C)cs1", "note": "(centres undefined)", "Potency": "inconclusive: 35.5 µM [inhibitor, single point]"}, {"smiles": "O=C(CSc1nc2c(c(=O)[nH]1)CN(Cc1ccc(F)cc1)CC2)Nc1cccc(C(F)(F)F)c1", "Potency": "inactive"}, {"smiles": "COC(=O)C1=C(C)NC(C)=C(C(=O)OC)C1c1ccc(-c2cccc(Cl)c2Cl)o1", "Potency": "inconclusive: 35.5 µM [inhibitor, partial curve, poor fit]"}, {"smiles": "COc1ccc(NC(=O)Cn2c(=O)n(CCc3ccccc3)c(=O)c3sc4ccccc4c32)cc1", "Potency": "inconclusive: 1.58 µM [inhibitor, full curve, poor fit]"}, {"smiles": "O=C(NCCCN1CCOCC1)c1ccc(-n2nc(C(F)(F)F)cc2-c2cccs2)cc1", "Potency": "inactive"}, {"smiles": "N#Cc1c2c(c(Nc3ccc(F)cc3)n3c1nc1ccccc13)CCCC2", "Potency": "inconclusive: 11.2 µM [inhibitor, single point]"}, {"smiles": "COc1cc(/C=C/C(=O)OCC(=O)NCc2ccco2)ccc1O", "Potency": "inconclusive: 15.8 µM [inhibitor, single point]"}, {"smiles": "O=C(CN1C(=O)C2C3C=CC(C3)C2C1=O)Nc1nc2ccccc2[nH]1", "note": "(centres undefined)", "Potency": "inconclusive: 3.16 µM [inhibitor, partial curve, poor fit]"}]}]}
